# Laboratory results from PubChem BioAssay AID1240 (Sanford-Burnham Center for Chemical Genomics, 2008).
# About 800 (1.6%) of roughly 50,000 compounds showed an effect of 50% or more. This is one part of the list.
# Biological target: Bcl-2-like protein 10 (Homo sapiens) (UniProt Q9HD36)
# Test: Phenotype converters, Bcl-B/TR3 peptide binding displacement, primary biochemical FP (AID 1240);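 also: 0% = Bcl-B with tracer peptide and DMSO and 100% = tracer peptide lacking Bcl-B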
# Settings: GST-Bcl-B / FITC-TR3 peptide fluorescence polarization; stronger effect = higher value; compound at 3.75 mg/L
# UniProt Q9HD36, sequence (Q9HD36 whole entry, looked up): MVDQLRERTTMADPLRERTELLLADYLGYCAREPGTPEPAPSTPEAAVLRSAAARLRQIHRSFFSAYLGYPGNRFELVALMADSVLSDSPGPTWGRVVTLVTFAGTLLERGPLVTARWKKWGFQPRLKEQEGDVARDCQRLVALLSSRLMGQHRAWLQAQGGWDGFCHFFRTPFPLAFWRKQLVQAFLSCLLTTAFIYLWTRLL
row,Structure (SMILES),displacement
1,O=C(N/N=C/c1cc(Cl)cc(Br)c1O)c1ccccc1[N+](=O)[O-],8%
2,Cc1cccc(-c2noc(-c3ccc(C)c([N+](=O)[O-])c3)n2)c1,76.1%
3,CCC(C)NC(=O)CN(c1ccc(OC)cc1OC)S(=O)(=O)c1ccc(C)cc1 (stereo unspecified),0.7%
4,CC1=C(C(=O)OC2CCCC2)C(c2cccc(F)c2)C2=C(CC(C)(C)CC2=O)N1 (stereo unspecified),21.9%
5,C=CCn1c(-c2nonc2NC(C)=O)nc2ccccc21,-0.4%
6,COc1ccc(/C(N)=N/OC(=O)c2ccccc2I)cc1,2.2%
7,CCCOc1ccc(N/C(N)=N/c2nc(C)cc(C)n2)cc1,-7.1%
8,CCn1c(C)[n+](CC)c2ccc(S(=O)(=O)N3CCCCC3)cc21,17.9%
9,CCOc1ccc(N2C(=O)S/C(=C\c3ccc(OC)cc3)C2=O)cc1,13.2%
10,C=CCNC(=S)NC(=O)/C=C/c1ccco1,7.4%
11,Cc1cccc(CC2CC(=O)N(CCc3ccc4c(c3)OCO4)C2=O)c1 (stereo unspecified),9.5%
12,O=C1NC(=S)NC(=O)C1=Cc1ccc(Cl)cc1Cl,10.9%
13,COc1ccc(NC(=O)CN(c2ccc(Br)cc2)S(C)(=O)=O)cc1OC,-11.5%
14,COc1cccc(/C=N/N2CCN(Cc3cccc4ccccc34)CC2)c1,11.9%
15,Cc1cc(OC(=O)c2ccc(Cl)c([N+](=O)[O-])c2)ccc1C(C)C,6.2%
16,CN1C(=O)/C(=C\c2cccc(OCc3ccc(Cl)cc3Cl)c2)SC1=S,-5.1%
17,COc1nsnc1NS(=O)(=O)c1ccc(NC(=S)NC(=O)c2sc3cc(F)ccc3c2Cl)cc1,15.4%
18,O=c1[nH]c(=O)n(-c2cccc(Br)c2)c(O)c1/C=C1\C=Nc2ccccc21,33.4%
19,CCOC(=O)C(Oc1ccc2c(oc(=O)c3ccccc32)c1C)c1ccccc1 (stereo unspecified),-5.8%
20,O=C(COc1ccc([N+](=O)[O-])cc1)Nc1cc(-c2nc3ccccc3s2)ccc1Cl,9%
21,O=C(CSc1nc2ccccc2n1Cc1ccccc1)N/N=C/c1cccs1,-0.3%
22,CCC(C)OC(=O)C1=C(C)NC2=C(C(=O)CCC2)C1c1cccs1 (stereo unspecified),-12.7%

row,Structure (SMILES),displacement
1,COc1ccc(/C=C2/NC(=S)NC2=O)c2ccccc12,-8.3%
2,CCOC(=O)c1c[nH]c2c(C)ccc(Cl)c2c1=O,10.3%
3,CC(=NCc1ccccc1)c1c(O)[nH]c2ccccc12,-10.2%
4,COc1nc(N/N=C\c2ccc3c(c2)OCO3)nc(N2CCOCC2)n1,2.3%
5,O=C(COc1ccccc1)Nc1nc(-c2ccc3c(c2)Cc2ccccc2-3)cs1,8.6%
6,O=C(O)CCCCCN1C(=O)C(=O)/C(=C(/O)c2ccc(Cl)cc2)C1c1ccc([N+](=O)[O-])cc1 (stereo unspecified),-7.8%
7,COc1ccccc1NC(=O)c1cc(-c2cccs2)nc2ccccc12,-3.7%
8,O=C(Nc1cccc(Cl)c1)Nc1nnc(CSCc2ccc(Cl)cc2Cl)s1,11.6%
9,COC(=O)COc1ccc(/C=C2\C(=O)NC(=S)N(c3ccc(F)cc3)C2=O)cc1OC,-3.2%
10,COc1cc(C2Nc3ccccc3NC3=C2C(=O)CCC3)ccc1O (stereo unspecified),3.3%
11,Cc1ccc(/C(N)=N/OC(=O)c2ccc(I)cc2)cc1,4.3%
12,O=C1C(=O)N(CCc2ccccc2)C2C=CC=CC12 (stereo unspecified),1.1%
13,CN1C(=O)C(=Cc2cccc(Br)c2)C(=O)N(C)C1=O,2%
14,CC(C)CC(=O)N1CCN(S(=O)(=O)c2ccc(Cl)cc2)CC1,-5.8%
15,Oc1ccc(-c2nc(-c3ccccc3)c(-c3cccs3)[nH]2)cc1O,13.9%
16,CC(C)N(Cc1ccccc1)S(=O)(=O)c1ccc(F)cc1,12.3%
17,O=C1CC(c2ccccc2)CC(O)=C1C=NCC1CCCO1 (stereo unspecified),39.8%
18,NC1=NC2(CCCCC2)N=C(Nc2cccc3ccccc23)N1,-9%
19,Cc1ccc(OCC(=O)Nc2ccc3oc(-c4cccnc4)nc3c2)c(C)c1,10.5%
20,Cc1cc(/C=C2\C(=O)NC(=O)N(c3ccc(Cl)cc3)C2=O)c(C)n1-c1cccnc1,-3.5%
21,O=C(Nc1ccccc1C(=O)N1CCN(Cc2ccccc2)CC1)c1ccccc1Cl,-4.9%
22,CN1C(=O)/C(=C/c2ccc(-c3ccc([N+](=O)[O-])cc3)o2)SC1=S,-0.4%

row,Structure (SMILES),displacement
1,COc1ccc(Br)cc1/C=C/C(=O)Nc1ccc(F)c([N+](=O)[O-])c1,8.1%
2,COc1ccc(C2CC(=O)C(C)(C)O2)cc1 (stereo unspecified),10.9%
3,CCOC(=O)c1c(-n2ncnc2-c2ccc([N+](=O)[O-])cc2)sc2c1CCCC2,6.5%
4,Cc1ccc(CNC(=O)C(=O)Nc2ccc(Br)cc2)cc1,-0.7%
5,COc1ccc(N2C(=O)NC(=O)/C(=C\c3ccc(OCC(=O)O)c(Br)c3)C2=O)cc1,-20%
6,COc1cc(/C=C2\SC(N)=NC2=O)cc(OC)c1,-9.9%
7,COc1ccc(NC(=O)CN(c2ccc(C)cc2)S(=O)(=O)c2ccc(SC)cc2)c(OC)c1,-6.8%
8,Cc1ccc(NCC(=O)N/N=C\c2cccc(O)c2)cc1,5.1%
9,COc1cc(/C=N/NC(=O)CSCc2cc(C)cc(C)c2)cc(OC)c1OC,6.1%
10,CCn1c2ccccc2c2cc(NC(=O)COc3ccccc3)ccc21,-1.3%
11,O=C(N/C(=C/c1ccco1)C(=O)N1CCCCC1)c1ccc([N+](=O)[O-])cc1,0.7%
12,O=C(CSc1n[nH]c(-c2ccccc2)n1)c1ccc(Br)cc1,14.7%
13,CCOC(=O)C1=C(C)NC2=C(C(=O)CCC2)C1c1ccc(OCc2cccc(F)c2)c(OC)c1 (stereo unspecified),-2.4%
14,COc1ccc(NC(=O)c2ccc(CN3CCN(c4ccccc4)CC3)cc2)cc1OC,-13.4%
15,CN(C)c1ccc(C2/C(=C(\O)c3ccc([N+](=O)[O-])cc3)C(=O)C(=O)N2CCCCCC(=O)O)cc1 (stereo unspecified),24%
16,COc1c(Cl)cc(C(=O)Nc2nc(-c3ccccc3)cs2)cc1Cl,4.6%
17,CC/C(=C/C(=O)c1ccncc1)Nc1ccc(OC)cc1,-4%
18,CCOc1ccc(C(=O)Nc2ccc(C)cn2)cc1,10.6%
19,O=C1S/C(=C\c2ccc(Br)o2)C(=O)N1c1ccc(Cl)c(Cl)c1,-3.9%
20,Cc1ccc(Cc2cnc(NC(=O)c3cccc([N+](=O)[O-])c3)s2)cc1,26.3%
21,COc1ccc(C(=O)Nc2cc(C)cc(C)n2)cc1OC,0.3%
22,COc1cccc(C2C(C(C)=O)=C(O)C(=O)N2CCN2CCNCC2)c1 (stereo unspecified),-12.3%

row,Structure (SMILES),displacement
1,CCCOc1ccc2nc(C)c(CCC)c(Cl)c2c1,-0.7%
2,O=C(CCCN1C(=O)/C(=C/c2cccc(Br)c2)SC1=S)NCCCN1CCOCC1,14.3%
3,Cc1cc(OCC(=O)Nc2sc3c(c2C#N)CCCC3)c(C(C)C)cc1Cl,-6.7%
4,CC(C)(C)NC(=O)/C(=C\c1cccs1)NC(=O)c1cccs1,-2.3%
5,COc1ccc(N(CC(=O)Nc2ccccc2Cl)S(C)(=O)=O)cc1Cl,1.1%
6,CCOC(=O)c1c2c(n(C)c1CO)C(=O)C(=O)c1ccc(Br)cc1-2,7.4%
7,O=C(NCCO)/C(=C\c1ccc(Cl)cc1)NC(=O)c1ccco1,-15.2%
8,COc1cc(NC(=O)c2ccc(Cl)cc2)c(Cl)cc1NC(=O)C(C)Oc1ccccc1 (stereo unspecified),40.1%
9,Cc1cc(=O)n(-c2ccc([N+](=O)[O-])cc2)[nH]1,5.7%
10,COC(=O)c1ccc(OCC(O)CN(Cc2ccccc2)Cc2ccccc2)cc1 (stereo unspecified),2.9%
11,O=C(C(c1ccccc1)c1ccccc1)N1CCN(Cc2ccco2)CC1,-6.6%
12,CC(=O)NC1=NC(=O)/C(=C\c2cccc(F)c2)S1,-29.1%
13,Cc1cc([N+](=O)[O-])ccc1-c1ccc(C(=O)Nc2ccc(N3CCOCC3)cc2)o1,-4.8%
14,Cc1sc2nc(SCCCC(=O)NCCO)[nH]c(=O)c2c1C,-0.1%
15,COc1ccc(-c2nnc(NC(=O)c3ccco3)s2)cc1,9.8%
16,CCOc1ccccc1-c1nc(SCC(=O)O)n[nH]1,1.7%
17,Cc1cccc(N2C(=O)c3ccc(C(=O)Nc4cccc(O)c4)cc3C2=O)c1C,16.8%
18,CC(=O)c1c(C)oc2c(Br)cc(NS(=O)(=O)c3ccccc3)cc12,-2%
19,C#Cc1cccc(NC(=O)COc2ccccc2OC)c1,-2.8%
20,CCOC(=O)c1ccccc1N(C(=O)C(F)(F)F)C1C=CS(=O)(=O)C1 (stereo unspecified),-3.1%
21,CCOc1ccc(OCC)c(S(=O)(=O)NCCCN2CCOCC2)c1,-8%
22,O=C1NC(=S)N/C1=C/c1cccc(OCc2ccccc2)c1,1.2%

row,Structure (SMILES),displacement
1,COc1ccc(/C(O)=C/C(=O)C(F)(F)F)cc1,5.8%
2,Cc1ccc(S(=O)(=O)/N=C2/NC(=O)/C(=C/c3ccco3)S2)cc1,33.6%
3,Cc1nn(-c2ccccc2)c2c1C(c1c(O)ccc3ccccc13)C(C#N)=C(N)O2 (stereo unspecified),8.2%
4,CCC(C(=O)Nc1nc2ccccc2s1)c1ccccc1 (stereo unspecified),2.3%
5,Cc1cc(/C=C2/NC(=S)NC2=O)c(C)n1-c1ccc(C(C)(C)C)cc1,8.6%
6,CCN1C(=O)/C(=C\c2ccccc2C)SC1=S,4.3%
7,CC(=O)C1=C(O)C(=O)N(c2nc3ccccc3s2)C1c1ccccc1Cl (stereo unspecified),-4.1%
8,COc1ccc(CNC(=O)CN(c2ccccc2)S(=O)(=O)c2ccccc2[N+](=O)[O-])cc1,5.3%
9,Cc1ccc2oc(C(=O)NCc3ccccc3)c(C)c2c1,-9.8%
10,CCOC(=O)c1ccc(-c2ccc(C(=O)Nc3cccc(NC(=O)c4ccccc4C)c3)o2)cc1,-17%
11,COc1ccc(C(C)=O)cc1N1C(=O)C=CC1=O,9.2%
12,CCN(CC)C(=O)c1ccc(CN(c2ccc(OC)cc2)S(=O)(=O)c2ccccc2)cc1,-6.5%
13,COc1cc(NC(=O)/C=C/c2ccco2)ccc1NC(=O)c1ccco1,-2.4%
14,CCN1C(=O)c2cccc3c(NC(=O)c4ccc(S(=O)(=O)N(C)C)cc4)ccc1c23,84.1%
15,COc1ccc(/C(O)=C2\C(=O)C(=O)N(CCc3ccccc3)C2c2ccc(OC)cc2)cc1 (stereo unspecified),1%
16,CC1CN(c2ccc([N+](=O)[O-])cc2Cl)CC(C)N1/C(=N\O)c1nonc1N (stereo unspecified),3.6%
17,O=C1OC(c2cccs2)=N/C1=C\c1ccc(-c2ccccc2Cl)o1,-12.6%
18,O=C1N=C(N2CCCCC2)S/C1=C\c1ccc2c(c1)OCO2,-1.7%
